T1: human DLL1/CHO-s cells (Homo sapiens, UniProt O00548)
T1 construct: Human DLL1 full-length protein; expressed in transfected cells; host or cells: CHO-s (Invitrogen, R80007)
T1 sequence (O00548 18-723): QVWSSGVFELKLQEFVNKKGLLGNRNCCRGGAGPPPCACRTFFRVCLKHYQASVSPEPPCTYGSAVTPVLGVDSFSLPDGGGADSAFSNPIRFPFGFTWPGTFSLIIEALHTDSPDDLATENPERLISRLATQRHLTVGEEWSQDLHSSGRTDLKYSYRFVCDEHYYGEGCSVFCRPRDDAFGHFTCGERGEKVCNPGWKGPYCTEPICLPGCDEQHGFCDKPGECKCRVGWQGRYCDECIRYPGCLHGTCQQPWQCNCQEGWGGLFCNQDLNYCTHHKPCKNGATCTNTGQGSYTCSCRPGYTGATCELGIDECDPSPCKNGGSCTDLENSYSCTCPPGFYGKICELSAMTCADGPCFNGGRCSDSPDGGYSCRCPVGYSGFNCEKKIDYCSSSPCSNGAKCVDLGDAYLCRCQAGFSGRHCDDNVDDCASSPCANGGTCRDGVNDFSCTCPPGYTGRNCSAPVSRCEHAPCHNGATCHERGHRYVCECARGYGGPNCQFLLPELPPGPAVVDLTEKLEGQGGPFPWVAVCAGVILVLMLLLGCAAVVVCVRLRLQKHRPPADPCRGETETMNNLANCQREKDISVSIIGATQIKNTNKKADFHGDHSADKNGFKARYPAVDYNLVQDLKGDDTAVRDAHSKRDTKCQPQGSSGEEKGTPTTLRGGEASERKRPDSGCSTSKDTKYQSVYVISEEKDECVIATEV

T2: human DLL3 (Homo sapiens, UniProt Q9NYJ7)
T2 construct: purchased ACRO DLL3-H52H4
T2 sequence (Q9NYJ7 27-492 limits assumed): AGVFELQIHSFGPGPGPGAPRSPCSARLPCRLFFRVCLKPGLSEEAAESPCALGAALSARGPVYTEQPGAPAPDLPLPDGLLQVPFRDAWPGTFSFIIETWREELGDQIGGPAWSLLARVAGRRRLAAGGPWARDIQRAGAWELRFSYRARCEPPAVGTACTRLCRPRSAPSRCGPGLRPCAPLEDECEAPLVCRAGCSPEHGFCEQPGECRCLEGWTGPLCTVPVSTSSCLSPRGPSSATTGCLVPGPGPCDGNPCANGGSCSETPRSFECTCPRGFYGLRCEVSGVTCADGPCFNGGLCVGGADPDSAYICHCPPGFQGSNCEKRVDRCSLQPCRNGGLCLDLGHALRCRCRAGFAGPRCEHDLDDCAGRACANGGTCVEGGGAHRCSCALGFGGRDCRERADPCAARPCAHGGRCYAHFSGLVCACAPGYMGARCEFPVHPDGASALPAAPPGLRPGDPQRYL

T3: mouse DLL3 (Mus musculus, UniProt O88516)
T3 construct: purchased KACTUS DLL-MM103
T3 sequence (O88516 33-592): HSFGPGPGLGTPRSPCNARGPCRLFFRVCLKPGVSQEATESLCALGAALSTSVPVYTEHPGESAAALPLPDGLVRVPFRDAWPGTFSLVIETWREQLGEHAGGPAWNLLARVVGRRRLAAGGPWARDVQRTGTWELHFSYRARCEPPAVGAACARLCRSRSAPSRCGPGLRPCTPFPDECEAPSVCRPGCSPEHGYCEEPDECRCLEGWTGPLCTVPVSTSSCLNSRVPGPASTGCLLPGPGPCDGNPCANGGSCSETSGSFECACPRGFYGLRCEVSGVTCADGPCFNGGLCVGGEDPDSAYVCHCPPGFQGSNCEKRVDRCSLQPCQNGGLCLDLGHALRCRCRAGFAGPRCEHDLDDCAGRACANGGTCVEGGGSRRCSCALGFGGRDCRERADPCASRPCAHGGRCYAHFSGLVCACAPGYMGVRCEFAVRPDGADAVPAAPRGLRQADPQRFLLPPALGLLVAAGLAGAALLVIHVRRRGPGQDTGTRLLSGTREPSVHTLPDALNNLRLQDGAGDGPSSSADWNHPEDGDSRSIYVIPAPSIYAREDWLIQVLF


How the values were obtained:
human DLL1/CHO-s cells = target: T1, human DLL1/CHO-s cells; assay: DLL1 binding assay (FACS)
Procedure: Stably transfected human DLL1/CHO-s and human DLL4/CHO-s cells were suspended at 1×10^6/mL in FACS buffer (containing 1% BSA and pH 7.4 PBS), and the cell suspensions were added to a 96-well round-bottom plate (Corning, 3795) at 100 µL/well. The plate was centrifuged at 300 g for 5 min, and the supernatant was removed. Test antibodies were added at 100 μL/well, and the plate was incubated in the dark in a refrigerator at 4° C. for 1 h. After 3 washes by centrifugation at 300 g, working concentrations of PE F(ab′)2-goat anti-human IgG Fc secondary antibody (invitrogen, H10104) were added. The plate was incubated in the dark in a refrigerator at 4° C. for 40 min. After 3 washes by centrifugation at 300 g, the geometric mean fluorescence intensity was measured on an Invitrogen flow cytometer.

human DLL3 = target: T2, human DLL3; assay: Biacore antibody affinity assay, human DLL3; format: binding
Procedure, shortened: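 Antibodies captured on Protein A chip for 18 s; human, cynomolgus or mouse DLL3 injected 180 s, dissociation 600 s, Biacore 8K. Regeneration with 10 mM glycine-HCl pH 1.5; kinetics from 1:1 model fit.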

mouse DLL3 = target: T3, mouse DLL3; assay: Biacore antibody affinity assay, mouse DLL3; format: binding
Source text: Test antibodies were affinity-captured with a Protein A biosensor chip (Cat. #29127556, Cytiva) for 18 seconds, and then the antigens human DLL3 (ACRO, DLL3-H52H4), cynomolgus monkey DLL3 (KACTUS, DLL-RM103), and mouse DLL3 (KACTUS, DLL-MM103) were allowed to flow over the surface of the chip for 180 seconds, followed by 600 seconds of dissociation. Reaction signals were detected in real time using a Biacore 8K (Cytiva) instrument to obtain association and dissociation curves. After the dissociation in each experimental cycle, the biosensor chip was washed and regenerated with a 10 mM glycine-hydrochloric acid solution (pH 1.5) (Cat. #BR-1003-54, Cytiva). A 1:1 model was fit to the data. The results are shown in Table 12-1, Table 12-2, and Table 12-3.

Row | Molecule | binding to human DLL1 (human DLL1/CHO-s cells) | ka (human DLL3) [M⁻¹ s⁻¹] | kd (human DLL3) [s⁻¹] | binding to mouse DLL3 (in words) (mouse DLL3) | KD (M) (mouse DLL3; mouse DLL3)
1 | Hu100: humanized anti-DLL3 antibody, heavy chain SEQ ID NO: 60, light chain SEQ ID NO: 61 (hAb100VH1 + hAb100VL1) (antibody, Hu100) heavy: EVQLVESGGGLVKPGGSLRLSCAASGFTFSDSGMHWIRQAPGKGLEWVSYISSGSSTIHYADTVKGRFTISRDNAKNSLYLQMNSLRAEDTAVYYCASPLYYYGRSYNAVAYWGQGTTVTVSS[human IgG1 constant region not written out] light: DIQMTQSPSSLSASVGDRVTITCHASQNINVWLSWYQQKPGKVPKLLIYKASDLHTGVPSRFSGSGSGTDFTLTISSLQPEDVATYYCQQGQSYPLTFGGGTKVEIKRTVAAPSVFIFPPSDEQLKSGTASVVCLLNNFYPREAKVQWKVDNALQSGNSQESVTEQDSKDSTYSLSSTLTLSKADYEKHKVYACEVTHQGLSSPVTKSFNRGEC | neither antibody Hu6 nor Hu100 bound | 858000 | 0.000374 | did not bind | No binding
2 | Hu6: humanized anti-DLL3 antibody, heavy chain SEQ ID NO: 58, light chain SEQ ID NO: 59 (hAb6VH12 + hAb6VL4) (antibody, Hu6) heavy: EVQLVQSGSELKKPGASVKVSCKASGYTFTDYYMNWVRQAPGQGLEWMGIINPYSGVTIYNHKFKGRFALSVDKSSNTAYLQISSLKAEDTAVYYCARQDSLLDYAMDYWGQGTTVTVSS[human IgG1 constant region not written out] light: DIQMTQSPSSLSASVGDRVTITCHASQGISGNMGWLQQKPGKAPKGLIYHGANLEDGVPSRFSGSGSGADYTLTISSLQPEDFADYYCVQYAQFPYTFGGGTKVEIKRTVAAPSVFIFPPSDEQLKSGTASVVCLLNNFYPREAKVQWKVDNALQSGNSQESVTEQDSKDSTYSLSSTLTLSKADYEKHKVYACEVTHQGLSSPVTKSFNRGEC | neither antibody Hu6 nor Hu100 bound | 2.06e+06 | 0.000805 |  | 

Source: US20250057968A1, “ANTI-DLL3 ANTIBODY AND PHARMACEUTICAL USE THEREOF, AND ANTIBODY-DRUG CONJUGATE CONTAINING ANTI-DLL3 ANTIBODY” (Jiangsu Hengrui Pharmaceuticals Co., Ltd., priority 2021, published 2025)
